Experimental data: PubChem BioAssay AID2546 (National Center for Advancing Translational Sciences (NCATS), 2010)
Screen size: about 310,000 compounds; about 11,000 (3.5%) were called active. The shares of active, inactive and inconclusive entries below differ from those in the screen. The call rests on the fitted dose curve; in most records, active means well fitted inhibition curve with a large enough effect; inconclusive means small, poorly fitted or top-dose-only effect, or effect the other way; inactive means flat fitted curve, though single readings scatter. No potency is given beside an inconclusive call; the fits are too rough.
Potency means the concentration at half of the fitted maximal effect; tags describe the fitted curve by direction and shape.

Assay: VP16 counterscreen qHTS for inhibitors of ROR gamma transcriptional activity;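 further: Gal4-VP16 expression switched on by copper sulfate through the metallothionein promoter; nearly all actives have a fitted effect of over 50% in size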
Conditions: Drosophila S2 Gal4-VP16 UAS-luciferase, luminescence, 20 h; series mostly up to 53.6 µM
With COCc1cc(C)nc(OCC(=O)N/N=C/c2ccc(C)o2)c1C#N the Potency was inconclusive [inhibitor, single point]. With CCOc1cc(/C=C/C(=O)c2ccc(O)cc2)ccc1OCC(=O)N(C)C the Potency was “inactive”. In the case of O=C(Nc1ccccc1N1CCCCC1)c1ccc(OC(F)F)cc1, the Potency is reported as “inactive”. With CCN(c1cccc(C)c1)S(=O)(=O)c1ccc2c3c(cccc13)C(=O)N2 the Potency was “inactive”. For Cc1ccc(Cn2c(=O)c3cccnc3n(CC(=O)Nc3cccc(C(F)(F)F)c3)c2=O)cc1, the Potency was inconclusive [inhibitor, full curve, poor fit]. With Oc1cc(-n2cccn2)c(O)cc1-n1cccn1 the Potency was active: 12.6 µM. With Cc1cc(C)cc(C(=O)OCC(=O)NCCNC(=O)COC(=O)c2cc(C)cc(C)c2)c1 the Potency was active: 0.0891 µM. With COc1ccc(-c2noc(N3CCC(C(=O)NC(C)c4ccccc4)CC3)n2)cc1 (stereo not drawn) the Potency was “inactive”. In the case of COc1cccc(/C=N/Nc2cc(C)nc(-c3ccccc3O)n2)c1O, the Potency is reported as inconclusive [inhibitor, single point]. In the case of C[C@@H]1NC(=O)N(CCCn2ccnc2)C1=O, the Potency is reported as “inactive”. In the case of CN1CCCN(C(=O)c2ccc(Cl)c(S(=O)(=O)N(C)c3ccccc3)c2)CC1, the Potency is reported as “inactive”. For Cc1c(Cl)cccc1NC(=S)NCc1ccco1, the Potency was inconclusive [inhibitor, single point]. For CCC(=O)NC(=S)Nc1ccc(Cl)cn1, the Potency was inconclusive [inhibitor, single point]. With COc1ccc2nc(NC(=O)CSc3nnc(N)s3)sc2c1 the Potency was “inactive”. For CCn1c(=O)c(CCC(=O)NCC2CCCO2)c(C)c2c(C)nn(-c3ccccc3)c21 (stereo not drawn), the Potency was “inactive”. With CC(C)(C)c1ccc(C(=O)c2c[nH]c(C(=O)NCC3CCCO3)c2)cc1 (stereo not drawn) the Potency was active: 12.6 µM. For O=C1NC(=S)N/C1=C\C=C\c1ccccc1, the Potency was “inactive”. For O=C1N/C(=N\c2ccccn2)SC1Cc1ccccc1Cl (stereo not drawn), the Potency was active: 1 µM. With Cc1cc(C)c(COCc2cc(/C=N/O)c(C)cc2C)cc1/C=N/O the Potency was “inactive”. For Cc1ccc(NC(=S)Nc2cccc3ccccc23)cc1F, the Potency was active: 7.94 µM. For Cc1ccc(NC(=O)c2cc(S(=O)(=O)NCCC3=CCCCC3)ccc2F)cc1F, the Potency was inconclusive [inhibitor, single point]. For Cc1[nH]c2ccccc2c1C(=O)C(=O)N1c2ccccc2CC1C (stereo not drawn), the Potency was inconclusive [inhibitor, single point]. With COC(=O)c1ccccc1NC(=O)CN1CCC(C(=O)c2ccc3c(c2)OCCO3)CC1 the Potency was inconclusive [inhibitor, single point].
